Assay results reported in PMC10412561 (Nature Communications, 2023).

Target: T1, ValDLT (Vibrio alginolyticus, UniProt A0A7Y4B3E8)
T1 construct: gene F0254_14065

SMILES: CC/C=C\C/C=C\C/C=C\C/C=C\C/C=C\C/C=C\CCC(=O)O [DHA, docosahexaenoic acid]
- X-ray crystal structure of the complex (co-crystallised with 1.25 mM DHA, acyl-binding pocket): arachidonic acid (ARA) and docosahexaenoic acid (DHA), two other long-chain fatty acids

SMILES: CCCCCCCC/C=C\CCCCCCCC(=O)O [OLA, oleic acid]
- X-ray crystal structure of the complex (co-crystallised with 1 mM oleoyl-CoA, oleic acid modelled in acyl-binding pocket of monomer A): we solved the ValDLT structure in complex with oleic acid (OLA)

SMILES: CCCCC/C=C\C/C=C\C/C=C\C/C=C\CCCC(=O)O [ARA, arachidonic acid]
- X-ray crystal structure of the complex (co-crystallised with 1.25 mM ARA, acyl-binding pocket): We also solved the structures of ValDLT in complex with arachidonic acid (ARA)

SMILES: CCCCCCCCCCCC(=O)O [LAA, lauric acid]
- X-ray crystal structure of the complex (co-crystallised with 3 mM sodium laurate, acyl-binding pocket of monomer A): We solved the crystal structure of ValDLT in complex with lauric acid (LAA)

Read-outs that look alike come from different tables or passages of the source.
